Measured values as given in publication PMC4336329 (PLoS ONE, 2015).
Hit rate of the full screen: of about 310,000 compounds, about 2,200 (0.71%) showed an effect of 50% or more. Effects have a minus sign here. This is one part of the list.

target: human ether-à-go-go-related gene (hERG) potassium channel (human, UniProt Q12809); test: primary screen, population patch clamp on CHO cells stably expressing hERG
Sequence (Q12809 whole entry, looked up): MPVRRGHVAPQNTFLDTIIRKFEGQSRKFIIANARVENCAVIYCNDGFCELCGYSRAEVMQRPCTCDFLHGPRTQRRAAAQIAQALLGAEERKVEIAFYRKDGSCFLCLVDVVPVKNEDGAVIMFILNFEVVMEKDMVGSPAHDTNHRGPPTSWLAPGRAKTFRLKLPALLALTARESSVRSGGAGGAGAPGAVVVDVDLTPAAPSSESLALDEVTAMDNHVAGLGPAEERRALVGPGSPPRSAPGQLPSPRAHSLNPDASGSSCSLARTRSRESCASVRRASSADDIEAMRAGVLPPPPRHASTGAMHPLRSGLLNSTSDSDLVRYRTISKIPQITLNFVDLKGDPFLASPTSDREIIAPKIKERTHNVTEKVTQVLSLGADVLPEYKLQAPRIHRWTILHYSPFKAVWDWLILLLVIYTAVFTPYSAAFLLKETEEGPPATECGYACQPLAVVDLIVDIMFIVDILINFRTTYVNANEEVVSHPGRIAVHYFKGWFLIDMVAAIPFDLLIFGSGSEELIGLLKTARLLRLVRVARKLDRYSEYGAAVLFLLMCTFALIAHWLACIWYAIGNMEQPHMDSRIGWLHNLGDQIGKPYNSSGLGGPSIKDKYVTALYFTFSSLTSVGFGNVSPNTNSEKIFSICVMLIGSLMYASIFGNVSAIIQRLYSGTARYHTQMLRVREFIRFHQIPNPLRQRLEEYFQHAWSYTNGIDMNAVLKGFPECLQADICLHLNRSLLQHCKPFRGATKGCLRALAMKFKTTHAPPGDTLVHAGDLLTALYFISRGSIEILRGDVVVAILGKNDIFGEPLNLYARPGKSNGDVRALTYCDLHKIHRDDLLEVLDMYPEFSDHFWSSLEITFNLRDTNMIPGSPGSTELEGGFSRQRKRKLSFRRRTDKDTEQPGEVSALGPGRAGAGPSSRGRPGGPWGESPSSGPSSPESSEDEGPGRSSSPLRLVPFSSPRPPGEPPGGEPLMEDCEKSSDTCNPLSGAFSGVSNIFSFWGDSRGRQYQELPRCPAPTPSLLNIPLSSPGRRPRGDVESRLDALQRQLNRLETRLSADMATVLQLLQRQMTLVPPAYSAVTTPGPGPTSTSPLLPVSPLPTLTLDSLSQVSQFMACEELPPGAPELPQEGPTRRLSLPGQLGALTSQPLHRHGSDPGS

| Structure (SMILES) | hERG current change (%, negative = inhibition) at 1uM [%] |
| --- | --- |
| O=C(NC1CCC(C(=O)O)CC1)OCc1ccccc1 (stereo not drawn) | 12.5 |
| O=C(CCNS(=O)(=O)c1ccc(Cl)cc1)OCC(=O)c1ccc[nH]1 | 3.99 |
| CCOC(=O)c1c(O)c2c(n(Cc3ccco3)c1=O)CCCC2 | 19.7 |
| COc1ccc(/C=C(/NC(=O)c2ccccc2Cl)C(=O)O)cc1 | 8.61 |
| CCOc1ccccc1OCC(=O)Nc1ccc(Cl)cc1Cl | 14.1 |
| COc1cc(NC(=O)c2ccc(C)cc2C)ccc1NC(=O)c1cccs1 | 3.03 |
| CN(C)C(=O)c1nc(C#N)c(N(C)C)o1 | 11 |
| Cc1ccccc1S(=O)(=O)Cc1ccc(C(=O)NCCN(CC(C)C)CC(C)C)o1 | 0.83 |
| Cc1ccc(C(=O)Nc2ccc3c(c2)CCC3)cc1 | 16 |
| CCc1cc(=O)oc2cc(C)cc(OCC(=O)NCc3cccnc3)c12 | -0.591 |
| CCc1nc(NCC2CCCO2)c2oc3ccccc3c2n1.Cl (stereo not drawn) | -1.27 |
| COc1cccc(/C=C(/C(=O)OCC(=O)NC2CCCC(C)C2C)c2ccccc2)c1 (stereo not drawn) | 12.5 |
| Cc1cc(C)cc(NC(=S)N2CCC(NC(=O)C3CC3)CC2)c1 | 12 |
| COc1cc(=O)[nH]c(SC(C)C(=O)Nc2ccc3ccccc3c2)n1 (stereo not drawn) | 20 |
| O=C(CCN1C(=O)c2ccccc2C1=O)N1CCC(c2ccccc2)C1 (stereo not drawn) | 11.2 |
| COc1ccc(S(=O)(=O)N2CCCCCC2)cc1C(=O)NC1(C)CCS(=O)(=O)C1 (stereo not drawn) | -6.08 |
| COc1cccc(NC(=O)CN(C)C(=O)COc2ccc3ccccc3c2)c1 | 3.89 |
| COc1ccc(NC(=O)Cc2cccc(F)c2)cc1S(=O)(=O)Nc1ccccc1Cl | 10.5 |
| Cc1ccc(S(=O)(=O)N2CCC(C(=O)N3Cc4ccccc4C3)CC2)cc1 | 1.89 |

| Structure (SMILES) | hERG current change (%, negative = inhibition) at 1uM [%] |
| --- | --- |
| CC(NC(=O)Cc1cccc2ccccc12)C(=O)N1CCC(=O)CC1 (stereo not drawn) | 14.1 |
| CC(C)(CNC(=O)c1cccc(S(=O)(=O)NCc2ccccc2)c1)N1CCOCC1 | 12.1 |
| COc1ccc(-c2nnc(SCc3csc(N)n3)n2C)cc1 | -1.87 |
| CSC1=NC2(CCCCC2)C2=C(CCCC2)N1 | 5.84 |
| CCOC(=O)c1cc2c(ccn2-c2ccc(F)cc2)n1CC(=O)NC(C)(C)C | 8.29 |
| CCOC(=O)COc1ccccc1/C=N/O | 1.3 |
| COc1cccc(/C=C/C(=O)Nc2ccc3nc4n(c(=O)c3c2)CCCC4)c1OC | 15.9 |
| Cc1onc(-c2ccccc2)c1C(=O)N/N=C/c1ccc(O)c([N+](=O)[O-])c1 | 5.98 |
| COc1ccc(S(=O)(=O)N2CCC(O)(c3ccc4c(c3)OCO4)CC2)cc1 | -1.77 |
| CCOc1ccc2c(c1)C(C)=CC(C)(C)N2C(=O)Nc1ccccc1 | 13.2 |
| O=C(C1COc2ccccc2O1)N1CCc2ccccc2C1 (stereo not drawn) | 7.08 |
| Cc1nc2ccccc2n2c(-c3ccccc3)c3c(=O)n(C)c(=O)n(C)c3c12 | 9.9 |
| Clc1cccc(CSc2ccc(-c3cccnc3)nn2)c1 | -2.96 |
| C=CCc1c(C)c(C#N)c2nc3ccccc3n2c1NCCN(C)C | 4.14 |
| CC(=O)O[C@H]1CC[C@@]2(C)[C@H](C1)C(=O)C[C@H]1[C@@H]3CC[C@@H]4[C@@H](CN5C[C@@H](C)CC[C@H]5[C@@]4(C)O)[C@@H]3C[C@@H]12 | 3.12 |
| O=C(CN(C(=O)CCC(=O)Nc1nccs1)c1ccc2c(c1)OCO2)NCc1ccc(F)cc1 | 9.89 |
| CCCCNC(NCCCC)=C(S(=O)(=O)CC)S(=O)(=O)CC | 7.6 |
| COc1ccc([N+](=O)[O-])cc1NC(=O)C(C)OC(=O)CC1CCCC1 (stereo not drawn) | 3.47 |
| O=C(O)CC(NC(=O)Cc1ccccc1)c1cc([N+](=O)[O-])ccc1Cl (stereo not drawn) | 13.7 |

| Structure (SMILES) | hERG current change (%, negative = inhibition) at 1uM [%] |
| --- | --- |
| CCO[C@@H]1OC(C(=O)NC2CC2)=C[C@H](C(C)(C)C)[C@H]1CCCO | 13.7 |
| COc1ccc(OCC(=O)N2CCN(Cc3ccc4c(c3)OCO4)CC2)cc1 | 6.71 |
| CCOc1ccc(Br)cc1S(=O)(=O)Nc1nc(CN2CCOCC2)nc2sc(C)c(C)c12 | 10.7 |
| O=C(NC1CC1)C1CC(=O)N(c2cccc(Cl)c2)C1 (stereo not drawn) | 5.03 |
| COc1ccc(-c2nc(CS(=O)CC(=O)NCc3ccccc3)c(C)o2)cc1OC (stereo not drawn) | 4.9 |
| CC(C)(C)NC(=O)COC(=O)CCC(=O)c1ccc(Cl)cc1 | 7.79 |
| O=C(Nc1ccccc1F)c1ccco1 | 15.2 |
| CCCCNC(=O)CSc1nc2ccccc2n1S(=O)(=O)c1ccc(Cl)cc1 | 9.92 |
| O=C(CCNC(=O)c1ccc(Br)cc1)NCC1CCCO1 (stereo not drawn) | 5.9 |
| O=C(Nc1ccnn1C1CCN(C2CCC2)CC1)c1ccccc1 | 16.6 |
| NC(N)=NN=C1c2ccccc2-c2ccccc21 | 14.4 |
| COc1ccc(CNC(=O)CCCn2c(=S)[nH]c3cc4c(cc3c2=O)OCO4)cc1 | 11.5 |
| Cc1cccc([N+](=O)[O-])c1NC(=O)CN(Cc1ccccc1)Cc1ccccc1 | -4.3 |
| CN(N=Nc1ccc([N+](=O)[O-])cc1)c1ccccc1 | 11.5 |
| CC(=O)c1cc2c(O)c(O)ccc2o1 | 11.8 |
| Cc1ccc(C(=O)Nc2ccncc2)o1 | 5.98 |
| Cc1ccc(C(=O)COC(=O)c2ccncc2)cc1[N+](=O)[O-] | 21.2 |
| CCN(CC)c1ccc(/C=C2/C(=O)N(c3ccc([N+](=O)[O-])cc3)N=C2N2CCOCC2)cc1 | 7.67 |
| NC(=O)c1ccc(NC(=O)c2ccc3c(c2)OCO3)cc1 | -2.25 |
